Some of these densities may be calculated back from excess volumes.
Experiment: xn = mol fraction of the nth substance listed
Settings: 100 kPa

CC[n+]1ccn(C)c1.F[B-](F)(F)F + CCOCCO
x2 = 0
Settings	mass density [kg/m3]
298.15 K	1277.6
318.15 K	1262.1
328.15 K	1254.6

CCOCCO + CC[n+]1ccn(C)c1.F[B-](F)(F)F
mass density [kg/m3]
Settings	298.15 K	308.15 K	318.15 K	328.15 K
x1 = 0.0466	1267.2	1259.5	1251.7	1244.4
x1 = 0.0981	1255.7	1248	1240.1	1232.9
x1 = 0.1487	–	1236.4	1228.5	1221.4
x1 = 0.1973	1232.8	1225.1	–	1210
x1 = 0.3049	1206.4	1198.6	–	1183.2
x1 = 0.4112	1177.6	1169.7	1161.7	1154
x1 = 0.4953	1152.4	–	1136.3	1128.2
x1 = 0.5705	1127.5	1119.4	1111.2	–
x1 = 0.696	1080.2	1071.9	1063.5	1055
x1 = 0.7952	1036.7	1028.2	–	1011.3
x1 = 0.8411	1014.6	1006	997.3	–
x1 = 0.8698	1000	–	982.6	974.5
x1 = 0.9487	957	948.1	939.1	931.6
x1 = 1	925.6	916.5	907.3	898.4
